Laboratory results from ChEMBL document CHEMBL4888484, “Replenishing the malaria drug discovery pipeline: Screening and hit evaluation of the MMV Hit Generation Library 1 (HGL1) against asexual blood stage Plasmodium falciparum ,using a nano luciferase reporter read-out” (2022).
In all, about 150,000 compounds went through this assay and about 540 (0.36%) showed an effect of 50% or more. Some of the results follow.

tested on: Plasmodium falciparum; test: Primary screen in NF54 nanoGlo assay, in single point, at 2uM, 72h; a lower Z score goes with more inhibition; type: functional, Erythrocyte; conditions: timepoint 72 hour

| Structure (SMILES) | % Inhibition [%] | Z score |
| --- | --- | --- |
| C[C@@H](CNS(=O)(=O)C1CC1)N(C)S(=O)(=O)C1CC1 | -8 | 1.28 |
| Cc1[nH]c(=O)[nH]c1C(=O)NC1(c2c(Cl)cccc2Cl)CC1 | -11 | 1.43 |
| CC(C)(CS(C)(=O)=O)C(=O)N1C[C@H](c2ccccc2)C2(CCC2)C1 | -5 | 0.63 |
| CCOC(=O)c1c(N)c2cnccc2n1C | -4 | 0.51 |
| CC(C)Oc1c(Cl)cccc1NCC(=O)NCC(F)(F)F | -5 | 0.68 |
| CCN(CC)c1cc(-c2cnn(C)c2)nc(N)n1 | -1 | 0.25 |
| Nc1nccc(-c2cnc(-c3ccccn3)s2)n1 | -20 | 2.33 |
| O=C(c1ccccc1)N1C[C@H]2CC[C@@H](C1)N(Cc1cc3ccccc3o1)C2 | -8 | 1.51 |
| CN(CCCc1cc(-c2ccccc2)n[nH]1)C(=O)[C@@H]1CCCCN1 | -7 | 0.89 |
| CC(C)(C)c1noc(C2CN(c3ccc(Br)cc3C#N)C2)n1 | -12 | 2.3 |
| O=C(c1ccc(Cl)s1)N1CC(OCC(F)(F)F)C1 | -11 | 1.78 |
| Cc1[nH]c2ccccc2c1C(=O)N1CCO[C@H](c2cc(F)c(Cl)cc2Cl)C1 | -11 | 1.43 |
| CN(CCc1ccccn1)C1CCN(Cc2ccccc2)CC1 | -4 | 0.73 |
| COCCC(=O)N(CCN(C)C)Cc1cccc(Cl)c1 | -8 | 1.04 |
| O=C(Nc1cccc2cccnc12)c1ccc(OC[C@H]2CCCO2)nc1 | -14 | 2.58 |
| c1cnc2nc(NCCCn3cccn3)c(NCCCn3cccn3)nc2c1 | 1 | -0.14 |
| O=C(Cc1cccc(F)c1)N[C@@H]1COCC[C@@H]1OCc1ccccc1 | -11 | 1 |
| COCCn1ccnc1C1CCN(C(=O)c2nn(C)cc2Cl)CC1 | -11 | 1.84 |
| CCCN1C(=O)CC[C@@H]2CN(C(=O)c3ccc(COC)o3)CC[C@@H]21 | -23 | 1.98 |
| O=S(=O)(Nc1ccc2c(n1)CCCC2)c1ccnn1C1CCC1 | -4 | 0.52 |
| Cc1nc(C)c(CC(=O)Nc2ccccc2C)c(=O)[nH]1 | -7 | 1.4 |
| Nc1ccn2ncc(C(=O)N[C@H]3CCOCC34CCCC4)c2c1 | 7 | -1.38 |

| Structure (SMILES) | % Inhibition [%] | Z score |
| --- | --- | --- |
| COc1cc(C(F)(F)F)c(Cl)cc1N | -20 | 2.55 |
| COc1cc2c(cc1CN1CCC(CNC(=O)[C@@H]3CCCO3)CC1)OCCCO2 | -11 | 1.34 |
| O=C(Nc1ccc(N2CCN(c3ccccc3)CC2)nc1)[C@@H]1CCCO1 | 9 | -1.26 |
| COc1ccc([C@@H](N)CN2CCCC2)cc1 | -13 | 1.49 |
| CCOC(=O)[C@H]1CCCN(C(=O)CN2C(=O)COc3ccc(S(=O)(=O)N4CCCCC4)cc32)C1 | -15 | 1.48 |
| CC(C)Cn1nc2n(c1=O)[C@H](C(=O)N1CCc3ccccc3C1)CCCC2 | -7 | 0.91 |
| Cc1ccc(CCC(=O)N2CC(N3C(=O)CCC3=O)C2)cc1F | 0 | -0.05 |
| Cc1cccc(CCn2ccc3ncccc3c2=O)n1 | -20 | 1.97 |
| O=C(Nc1ccc2c(c1)OCCO2)Nc1nnc(N2CCCC2)s1 | -15 | 2.77 |
| O=C(c1cccc(-c2cn[nH]c2)c1)N1[C@H]2CCNC[C@@H]1CC2 | -6 | 1.04 |
| Cc1ccc(CCN2C(=O)[C@@H]3CCCN3C2=O)cc1 | -9 | 0.79 |
| O=C(NC1CCOCC1)c1ccc2c(c1)n(CC1CC1)c(=O)n2C1CCCCC1 | 4 | -0.43 |
| CC(C)n1cnc2cc(CNC(=O)Cc3ccc(F)cc3)ccc21 | 2 | -0.18 |
| Cn1cc(S(=O)(=O)N2CC(=O)Nc3cccc4cccc2c34)cn1 | 6 | -0.64 |
| N#Cc1ccc(NCc2ccc(S(=O)(=O)N3CCCC3)cc2)cn1 | -7 | 0.61 |
| O=C(NCCc1cc(F)ccc1F)N1CCCC(C2CCCCO2)C1 (configuration not stated) | -1 | 0.19 |
| COc1cccc(Cc2nc(-c3cccc(-c4ccn[nH]4)c3)no2)c1 | -3 | 0.45 |
| O[C@@]1(c2cc(-c3cccs3)no2)CCOC1 | -8 | 1.04 |
| CN(Cc1ccno1)Cc1ccc(F)cc1F | -1 | 0.15 |
| N/C(CC(=O)Nc1ccccc1Cl)=N\O | -6 | 0.77 |
| Cc1cc(F)c(CNC(=O)[C@H]2CCc3nncn3CC2)c(F)c1 | 10 | -1.84 |
| C=CCn1cc(CN2CCc3[nH]cnc3[C@H]2c2ccnc3ccccc23)cn1 | 14 | -2.49 |

| Structure (SMILES) | % Inhibition [%] | Z score |
| --- | --- | --- |
| COc1ccc(C(=O)N2CCCCCNC(=O)[C@@H]3CCCC[C@@H]32)c(OC)c1 | -7 | 1.3 |
| COc1ccc(F)cc1S(=O)(=O)N1CC[C@H](c2ccsc2)C1 | 0 | 0 |
| Nc1c2c(-c3ccccc3F)nc(NCCOc3ccccc3)nc2nn1-c1ccc(Cl)c(Cl)c1 | 11 | -1.34 |
| COC1(c2cnnn2C)CN(c2nc(C)nc3c2cnn3C)C1 | 4 | -0.37 |
| COc1ccc(-c2noc(-c3ccc(N(C)Cc4ccccc4)nc3)n2)cc1 | -1 | 0.15 |
| O=C(c1ccco1)N1CCCCC[C@@H]1CN1CCOCC1 | -10 | 1.55 |
| C[C@H]1C(=O)Nc2ccccc2CN1Cc1noc2c1COCC2 | 6 | -1.14 |
| CC(=O)N1C[C@H](O)C[C@@H]1C(=O)N1CCN(Cc2ccccc2)C2(CCCCC2)C1 | -14 | 1.6 |
| O=S(=O)(Cc1ccccc1F)N1CC(c2ccccc2)C(c2ncon2)C1 (configuration not stated) | -9 | 1.59 |
| O=C1N[C@]2(CCOC2)C(=O)N1Cc1cc(Cl)ccc1Cl | -17 | 2.1 |
| COc1ccc(-c2c3cnn(C(C)C)c3nc3[nH]c(=O)sc23)cc1O | -2 | 0.3 |
| CC[C@H]1[C@H](NC(=O)c2cncs2)[C@H]2CCO[C@H]21 | -8 | 1.09 |
| CNC(=O)Cc1noc(C[C@H]2CCC(C)(C)c3ccccc32)n1 | 6 | -0.81 |
| CC(C)n1cc(NC(=O)N[C@@H](C)Cn2cncn2)cn1 | -9 | 1.12 |
| CCC(CC)CN(CC)C(=O)c1scnc1C | -4 | 0.45 |
| CN1N=C(c2ccc3c(c2)NC(=O)CO3)C[C@H]1c1cccc(C#N)c1 | -15 | 2.06 |
| O=C(NCCN1CCOCC1)c1cc2cc(NS(=O)(=O)c3ccc(F)cc3)ccc2n1Cc1ccc(F)cc1 | -16 | 3.07 |
| OCCN1CCN(CCn2cc(Cl)cn2)CC1 | -7 | 1.43 |
| Cc1nc([C@H]2CCOC2)cc(N(C)Cc2noc(C3CCCC3)n2)n1 | -18 | 1.93 |
| COCC(C)=CCn1nnnc1-c1ccccn1 | -4 | 0.65 |
| O=C(c1cnn2c1CCC2)N1CCN(c2ccc(F)cn2)CC1 | -5 | 0.74 |
| CCOc1ccc(CN2CC[C@@]3(CCCN(Cc4cccnc4)C3=O)C2)cc1 | -2 | 0.4 |

| Structure (SMILES) | % Inhibition [%] | Z score |
| --- | --- | --- |
| CN1CCCC1C1CCCN1C(=O)C1CCc2ccccc21 (configuration not stated) | -12 | 2.1 |
| COCc1nc(-c2csc3c2CCCC3)n(CCO)n1 | -4 | 0.83 |
| Cn1ccc(NC(=O)N2CCN(Cc3csc(C(C)(C)C)n3)CC2)n1 | -12 | 1.72 |
| COc1cc(NC(=O)Cn2nc(C)c3c(C)onc3c2=O)cc(OC)c1 | -14 | 1.38 |
| O=C(N[C@H]1CCC12CCCC2)C12CCCN1CCC2 | -13 | 2 |
| CCC(=O)Nc1ccc(Cl)cc1F | -6 | 0.64 |
| Cc1cn2nc(C(=O)N3CCN(c4ccccc4)CC3)cc2c(N2CCCC2)n1 | -4 | 0.49 |
| CN1CCN(C(=O)CNCc2cnc(N3CCOCC3)nc2)CC1 | -17 | 3.14 |
| CCc1cnc(NCc2c[nH]c(C(=O)OC)c2)s1 | -3 | 0.37 |
| CCOc1ccccc1NC(=O)c1c(NCc2cccs2)sc2c1CCCCC2 | 11 | -1.73 |
| CCc1ccccc1OC1CN(C(=O)NCCCc2nnc3ccccn23)C1 | -22 | 2.22 |
| Cc1ccccc1OCC(=O)N1CC[C@H](n2c(=O)[nH]c3cncnc32)C1 | -18 | 1.84 |
| CC(C)NC(=O)[C@@H]1C[C@@H](NC2CCCCCC2)CN1Cc1ccc2ccccc2c1 | -10 | 1.37 |
| Cc1cc(NC(=O)CC2(CN)CCCCC2)nn1C | 3 | -0.38 |
| CCn1c(-c2cc(NC(=O)COc3ccc(Cl)cc3)[nH]n2)cc2cc(OC)ccc21 | 5 | -0.73 |
| CC(C)(C)c1csc(CN2CCOC[C@@H]2CC(=O)c2ccco2)n1 | -5 | 0.62 |
| CC(=O)N(CC(=O)N(Cc1ccco1)C[C@H]1CCCO1)CC(C)C | -4 | 0.59 |
| O=C(C1CCC(F)(F)CC1)N1CCO[C@H](c2ccc(C(F)(F)F)cc2)C1 | -2 | 0.39 |
| c1cn(C[C@@H]2CCCO2)c(-c2c[nH]cn2)n1 | -10 | 1.27 |
| COC[C@H]1CN(C(=O)NCc2oc3ccccc3c2C)CCO1 | -3 | 0.57 |
